The values below come from PubChem BioAssay (NCI).

Where “and” joins values, the source holds several entries; their conditions need not be identical. Equal values may be shown once.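 Following 48 hours of exposure in 96-well plates, responses at five concentrations were used to interpolate endpoints linearly. GI50 is the concentration that inhibits growth by half. TGI: total growth inhibition.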

The test deals with NCI-H322M lung. The test is described as follows: DTP human tumour cell line panel, 48 h.
As for `CCCCCCCCCCCCCC[C@@H](O)[C@H]1CC[C@H]([C@H]2CC[C@H]([C@H](O)CCCCCC[C@@H](O)CC3=C[C@H](C)OC3=O)O2)O1`, the GI50 – broadly, the concentration at which growth is held to half of that of the control – was 3.45 µM and the TGI (commonly the concentration giving total growth inhibition) was greater than 25 µM.

In the case of `O=C1Nc2ccccc2Nc2ccncc21`, the TGI was greater than 100 µM.

Regarding `CCCCCCC[CH2][Sn]1([CH2]CCCCCCC)[O]C(=O)c2cccnc2[O]1`, the GI50 was greater than 100 µM and the TGI was greater than 100 µM.

Consider `CC[C@H](C)[C@H](NC(=O)CN(C)C)C(=O)N(C)[C@H](C[C@@H](OC(C)=O)c1nc(C(=O)NC23CC(C(=O)OC)(C2)C3)cs1)C(C)C`, for which the GI50 is 1.02 µM and the TGI was greater than 25 µM.

Turning to `c1ccc2c3c([nH]c2c1)C(c1ccc(C2NCCc4c2[nH]c2ccccc42)cc1)NCC3` (centres undefined), the GI50 was 1.25 µM and the TGI worked out at 2.66 µM.

As for `Nc1ncnc2c1ncn2C1CC(OCc2ccccc2[N+](=O)[O-])C(CO)O1` (centres undefined), the TGI was greater than 50 µM.

Take `O=C(NNc1nc(-c2ccccc2)cs1)C(F)(F)F`: the TGI is greater than 100 µM.

In turn, `CC1=C(C(=O)Nc2ccc(Cl)c(C(=O)OC(C)C)c2)SCCO1` came in with a TGI greater than 77.4 µM.

In the case of `CC1CC(=O)N(N(C)C)C(C#N)(C#N)C1(C#N)C#N` (centres undefined), the TGI was greater than 100 µM.

As to `O=C1Nc2ccccc2/C1=c1\[nH]c(=O)/c(=C\c2ccc(OCc3ccccc3)cn2)[nH]c1=O`, the TGI was greater than 100 µM.

The molecule `CC(=O)N(O)c1ccc(-c2nc3ccccc3s2)cc1` yielded a TGI greater than 100 µM.

As to `C#CCOc1ccc2ncnc(Nc3ccc(NC(=O)C=C)cc3)c2c1`, the GI50 is greater than 100 µM and the TGI was greater than 100 µM.

In turn, `ClC(Cl)[Si]12OCCN(CCO1)CCO2` registered a TGI greater than 100 µM.

On to `C=CCc1cc(OC)c2c(c1)C(OC)CC(c1ccc(OC)c(OC)c1)O2` (centres undefined), for which the TGI was greater than 100 µM.

`Cc1ccc2c(c1)C(=O)C(C1OC(=O)c3ccccc31)C2` (centres undefined) had a TGI greater than 100 µM.

Take `C=CCOCn1cc(C)c(=O)[nH]c1=O`: the TGI is greater than 100 µM.

Turning to `CC[n+]1c(/C=C/C=C2\N(C)c3ccccc3C2(C)C)sc2ccccc21`, the GI50 is 6.47 µM and the TGI came to 20.6 µM.

For the molecule `N=c1c2c(=N)n3c(nc2nc2n1-c1ccccc1Sc1ccccc1-2)sc1cc(Cl)ccc13`, the GI50 is 2.54 µM and the TGI stood at 12.2 µM.

Take `CN1CCN(CCCOc2cccc3nc(Nc4ccc(Cl)c(C(F)(F)F)c4)ccc23)CC1`: the GI50 is 1.44 µM and the TGI turned out to be 2.86 µM.

Consider `Cc1cc(N2CCN(C)CC2)n2nc(-c3ccc(Cl)cc3)nc2n1`, for which the TGI is greater than 100 µM.

Regarding `O=c1[nH]cnc2c1nnn2CCCCCCCCCCCCn1nnc2c(=O)[nH]cnc21`, the TGI is greater than 100 µM.

`CCOc1cc(NC(C)=O)ccc1C(=O)NN1C(=O)CSC1c1ccccc1` (centres undefined) came in with a TGI greater than 100 µM.

`NC(=O)NC1C(C(N)=O)N(Cc2ccccc2)C(=O)N1Cc1ccccc1` (centres undefined) registered a TGI greater than 100 µM.

For `C/C1=C\C=C(\C(C)C)CC/C(C(=O)O)=C\CC/C(C)=C/CC1`, the TGI worked out at 39.4 µM. That is a double-digit micromolar value.

Regarding `COc1ccc2oc(=O)c(-c3csc(C)n3)cc2c1`, the TGI was greater than 100 µM.

As to `COc1cc(CCc2ccc(N)cc2)cc(OC)c1OC`, the TGI is greater than 100 µM.

`Fc1cccc(F)c1C1SCc2nc3ccc(Cl)cc3n21` (centres undefined) displayed a TGI greater than 100 µM.

On to `CN(C)C(=S)SCC(=O)Nc1ccccc1`, for which the TGI was greater than 100 µM.

Molecule `COc1cc(-c2ccccc2N)c2cccnc2c1OC` yielded a TGI of 20.9 µM. In other words, the double-digit micromolar range.

`O=C(Nc1ccccc1)c1cc(S(=O)(=O)N2CCNNC2=O)c(S)cc1Cl` gave a TGI greater than 100 µM.

`O=C1c2cn[nH]c2C(c2ccccc2)N1c1ccccc1` (centres undefined) had a TGI greater than 10 µM.

As for `O=C1/C=C/[C@@H](O)[C@@H]2C[C@@H](O)C[C@H]2/C=C/CCC[C@H](C(F)(F)F)O1`, the GI50 is 18.9 µM and the TGI is greater than 87.9 µM.

`CSC1NC(c2ccc(Cl)cc2)=C(C#N)C(=O)N1C1OCC(OC(C)=O)C(OC(C)=O)C1OC(C)=O` (centres undefined) gave a TGI greater than 100 µM.

For the molecule `CCN(CC)Cc1cc2[nH]c3c4ccc(Cl)cc4ncc3c2cc1OC`, the GI50 was 14.2 µM and 3.14 µM; the TGI is 27.5 µM and 11.7 µM.

The molecule `CCc1ccccc1NNc1cc(=O)[nH]c(=O)[nH]1` came in with a TGI of 54 µM.

For the molecule `CCOC(=O)c1cnc2c(C)cccc2c1Nc1ccc(C(C)=O)cc1`, the GI50 is 30.8 µM and the TGI is greater than 100 µM.

In turn, `Cc1c(/C=N/N(C)C)oc2c1cc(O)c1ncccc12` displayed a TGI of 7.23 µM.

In the case of `O=C(CC(Cl)=C(Cl)Cl)c1cccc(Cl)c1Cl`, the GI50 was 3.82 µM and the TGI was greater than 100 µM.

Molecule `CC(=O)O[C@H]1CC[C@@]2(C)C(=CC[C@@H]3C2CC[C@]2(C)Nc4nc5ccccc5cc4CC32)C1` (some centres undefined) had a TGI of 21 µM. In other words, the double-digit micromolar range.

As to `CCn1c(-c2nonc2N)nc2cncc(C(=O)N3CC[C@H](N)C3)c21`, the GI50 was greater than 25 µM and the TGI is greater than 25 µM.

Molecule `C[Si](C)(C)C1=C([Si](C)(C)C)C(Cl)(Cl)C1=O` gave a TGI of 29.1 µM. In other words, the double-digit micromolar range.

Molecule `COc1ccc(/C=C/C2=NN(c3cccc(S(=O)(=O)O)c3)C3(C2)SCC(=O)N3c2nc3ccccc3s2)cc1` (centres undefined) gave a TGI greater than 100 µM.

Turning to `CCN1CCN(C(=O)[C@]23CCC(C)(C)C[C@@H]2C2=CC[C@@H]4[C@@]5(C)C/C(=C/c6ccncc6)C(=O)C(C)(C)[C@@H]5CC[C@@]4(C)[C@]2(C)CC3)CC1`, the GI50 was 1.62 µM and the TGI came out at 3.02 µM.

`Cc1cc([N+](=O)[O-])c2ccccc2[n+]1[O-]`: the GI50 was 0.279 µM and 0.26 µM; the total growth inhibition concentration (TGI) was 1.72 µM and 2.6 µM.

The molecule `CC1=NC(=Cc2ccc([N+](=O)[O-])cc2)C(=O)N1n1c(-c2ccccc2)nc2ccccc2c1=O` showed a TGI greater than 100 µM.

Turning to `CN(CC(=O)N(Cc1ccc(C2CCCCC2)cc1)c1ccc(C(=O)O)cc1)S(=O)(=O)c1c(F)c(F)c(F)c(F)c1F`, the GI50 was 1.89 µM and the TGI was found to be 4.27 µM.

As to `Cn1c(N/N=C/c2ccccc2)nc(-c2ccc([N+](=O)[O-])cc2)c(C#N)c1=O`, the TGI was greater than 100 µM.

Take `COC(OC)[C@@H]1OC[C@@H](O)[C@@H]1n1cnc2c(N)ncnc21`: the TGI was greater than 100 µM.

As for `CCCCCCCCCCCC[n+]1ccc2ccccc2c1`, the GI50 was 1.99 µM and the TGI stood at 4.39 µM.

For `CCN(CC)c1ccc2cc(C(=O)Nc3ccccn3)c(=N)oc2c1`, the TGI was greater than 100 µM.

As for `CCOC(=O)C1(C)CCCCC(=O)N1` (centres undefined), the TGI is greater than 100 µM.

As for `COC(=O)[C@H]1CCCN1C(=O)[C@H]1CCCN1C(=O)[C@H](Cc1c[nH]c2ccccc12)NC(=S)Nc1cc(C(F)(F)F)cc(C(F)(F)F)c1`, the GI50 is 34.7 µM and the TGI was greater than 100 µM.

On to `C[C@]12CCC3[C@@H](CC[C@@H]4c5nonc5CC[C@]34C)C1CC[C@@H]2O` (some centres undefined), for which the TGI is greater than 100 µM.

`CN1c2ccccc2N(C(=O)c2ccccc2)C(CC(=O)O)c2cccn21` (centres undefined) came in with a TGI greater than 100 µM.

For `Nc1c(Cl)ncnc1NCCCNc1ncnc(Cl)c1N`, the TGI was greater than 100 µM.

`CCOC(=O)Cc1nc2c(N)ncnc2n1C1OC(COC(C)=O)C(OC(C)=O)C1OC(C)=O` (centres undefined) yielded a TGI greater than 100 µM.

On to `O=C(NNc1ccccc1)/C(=C/c1ccc2c(c1)OCO2)NC(=O)c1ccccc1`, for which the TGI is greater than 100 µM.

On to `c1cc2c(cn1)Nc1ccncc1S2`, for which the GI50 was 40.5 µM and the total growth inhibition concentration (TGI) was greater than 100 µM.

Molecule `C[C@H](C/C=C/C(C)(C)O)[C@H]1CC[C@@]2(C)[C@@H]3CC[C@H]4C(C)(C)[C@@H](O)CC[C@@]45C[C@@]35CC[C@]12C` yielded a TGI of 22.7 µM. This counts as double-digit micromolar.

In turn, `CSc1c(C(=O)Nc2ccc(Cl)cc2)c(N)n(N)c(=O)c1C#N` came in with a TGI greater than 100 µM.

`CC(SC(=O)Nc1ccc(N=Nc2ccccc2)cc1)C(=O)O` (centres undefined) yielded a TGI greater than 100 µM.

In turn, `COc1ccc(/C=N/n2cnc3[nH]c(C)c(Cc4ccccc4)c3c2=N)cc1` yielded a TGI greater than 100 µM.

For the molecule `COc1ccc(C(C2=C(O)COC2=O)c2cc3c(cc2O)OCO3)cc1OC` (centres undefined), the TGI is greater than 100 µM.

Regarding `CC(=O)N1CCn2c1nc1cc(Cl)ccc12`, the TGI is 63 µM.

Regarding `Cc1ccccc1NC(=O)Cc1csc2[n+]1C(=O)/C(=C/c1ccc([N+](=O)[O-])cc1)S2`, the TGI was greater than 100 µM.

In the case of `COc1cccc(/C=C2\COc3ccc(-c4ccccc4)cc3C2=O)c1`, the GI50 was 1.98 µM and the TGI turned out to be 6.29 µM.

In turn, `C[C@H]1S[C@H](c2c(Cl)cccc2Cl)N2Cc3ccccc3N=C12` gave a TGI of 27.1 µM.

`CC(=O)Oc1ccc(/C=C/C(=O)O[C@@H](C(=O)O)[C@@H](OC(=O)/C=C/c2ccc(OC(C)=O)c(OC(C)=O)c2)C(=O)O)cc1OC(C)=O` displayed a TGI greater than 100 µM.

For the molecule `O=C1C(CN2CCOCC2)CCCC1CN1CCOCC1` (centres undefined), the TGI was 18.3 µM.

With `CC[C@H](C)[C@H](NC(=O)[C@H]1CCCCN1C)C(=O)N(C)[C@H](C[C@@H](OC(C)=O)c1nc(C(=O)N[C@@H](Cc2ccccc2)C[C@H](C)C(=O)O)cs1)C(C)C`, the GI50 was 0.000854 µM and 0.00165 µM; the TGI is greater than 16.5 µM.

Consider `C[C@@H]1S[C@H](c2c(Cl)cccc2Cl)N2Cc3ccccc3N=C12`, for which the TGI is greater than 100 µM.

As to `O=C1NC(=NCCCc2ccccc2)S/C1=C\c1ccc2ncccc2c1`, the GI50 was 4.41 µM and the TGI is greater than 18.6 µM.

Consider `O=C(CCc1ccccc1)On1c(-c2ccccc2)nc2ccccc2c1=S`, for which the TGI was greater than 100 µM.

As for `CCc1nc2ccc(NCCN(C)C)c3c(=O)c4ccccc4n1c23`, the TGI was 4.75 µM.

On to `COc1nnc2ccc(N3CCC(c4ccc(OCCN5CCN(C)C(=O)[C@H]5C)cc4)CC3)nn12`, for which the GI50 was 0.207 µM and the TGI was greater than 100 µM.

`COC(=O)c1ccc(Nc2nc3nc[nH]c3c(=O)[nH]2)cc1` returned a TGI greater than 100 µM.

As to `C=CC(=O)N1CC2(CC(n3nc(-c4ccc5c(cnn5C)c4)c(-c4c(Cl)c(C)cc5[nH]ncc45)c3C)C2)C1`, the GI50 was 5.21 µM and the TGI came out at 16.8 µM.

Take `COc1ccc(N(C)c2nc(N)nc3sc4c(c23)CCCC4)cc1`: the GI50 is less than 0.0132 µM and the TGI was determined as 20.2 µM.

`COc1cccc(-c2cc(=O)c3ccccc3[nH]2)c1` registered a TGI greater than 100 µM.

As for `C(=C\N1CCCCC1)/c1nnnn1-c1ccccc1`, the TGI was greater than 100 µM.

On to `COc1cc(N(Cc2ccc3oc(=O)c(-c4ccccc4)nc3c2)Cc2ccc3oc(=O)c(-c4ccccc4)nc3c2)cc(OC)c1OC`, for which the TGI is greater than 10 µM.

In turn, `c1ccc2c(c1)cc1n2CC2CN=NC12` (centres undefined) showed a TGI greater than 100 µM.

As to `O=C1Cc2cc(C(=O)NC3C[C@H]4CC[C@@H](C3)N4S(=O)(=O)CC3CCN(CCCC(F)(F)F)CC3)c(Cl)cc2N1` (some centres undefined), the GI50 was greater than 100 µM and the TGI is greater than 100 µM.
